Test results reported in publication PMC8429438, “DnaJC7 binds natively folded structural elements in tau to inhibit amyloid formation” (Nature Communications, 2021).

Biological target: T1, DnaJC7 (full-length, wild type, recombinant) (UniProt Q99615 1-494)
T1 construct: DnaJC7, class-C J-domain protein with TPR1, TPR2a, TPR2b and a C-terminal J domain; called full-length DnaJC7; Plasmid was a gift (A. Joachimiak); also called DnaJC7WT; WT DnaJC7
T1 sequence (looked up): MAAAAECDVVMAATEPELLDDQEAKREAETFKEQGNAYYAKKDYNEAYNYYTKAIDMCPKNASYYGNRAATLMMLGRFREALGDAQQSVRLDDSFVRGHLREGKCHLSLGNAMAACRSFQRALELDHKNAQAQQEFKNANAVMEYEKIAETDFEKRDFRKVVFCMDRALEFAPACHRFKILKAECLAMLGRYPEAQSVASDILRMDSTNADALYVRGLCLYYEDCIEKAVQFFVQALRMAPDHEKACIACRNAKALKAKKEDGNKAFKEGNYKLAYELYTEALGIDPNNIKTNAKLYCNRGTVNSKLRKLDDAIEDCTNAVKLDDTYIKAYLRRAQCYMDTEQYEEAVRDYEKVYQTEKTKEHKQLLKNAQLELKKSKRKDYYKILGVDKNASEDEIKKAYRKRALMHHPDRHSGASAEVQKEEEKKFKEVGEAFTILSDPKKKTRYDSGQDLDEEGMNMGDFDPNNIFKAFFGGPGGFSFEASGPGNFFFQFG
Assay: MST; Cy5-labelled wild-type or mutant tau/tauRD titrated with a serial two-fold dilution of DnaJC7 or single DnaJC7 domains; Monolith NT.115; technical triplicates; fit in PALMIST with a 1:1 binding model
Details: both partners purified

Kd: 8.3 ± 2.2 µM
B1: full-length 2N4R P301L tau (natural protein)
chain: not shown
modifications: Cy5 (Cyanine5 NHS ester) label in MST
notes: microtubule-associated protein tau, 2N4R isoform, full length, with the disease-associated P301L mutation; also called full-length P301L tau mutant; source: E. coli BL21 (DE3), pET28b, purified
